PubChem BioAssay AID1476 (National Center for Advancing Translational Sciences (NCATS), 2009)
Several values for one entry are separate records, joined by “and”; a condition that tells them apart may be missing. Identical values can stand only once. About 4,500 (2.2%) of roughly 200,000 compounds were called active. The inconclusive results got no clear call from the source; some entries with a clear call stand among them for comparison. Calls come from the whole dose curve; as a rule, active = well fitted inhibition curve with a large enough effect; inconclusive = small, poorly fitted or top-dose-only effect, or effect the other way; inactive = flat fitted curve, though single readings scatter. Potencies beside an inconclusive call are fits to weak or partial responses and may not hold up.

biological target: Cruzipain (Trypanosoma cruzi) (UniProt P25779); assay: qHTS Assay for Promiscuous and Specific Inhibitors of Cruzain (without detergent); settings: purified cruzain, Z-FR-AMC fluorescence, no detergent; note: nearly all actives have a fitted effect of over 40% in size;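 for max response, negative = inhibition: plate controls were enzyme without inhibitor for no effect and buffer without enzyme for full effect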
Outline: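 Detergent-free condition (0.00005% Triton X-100) in acetate buffer pH 5.5 with DTT. 1.5 nM enzyme and compound were pre-mixed 15 min, then 2 uM Z-FR-AMC substrate added; reaction progress from fluorescence change between first and third reads (60 s).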
Potency is the fitted concentration of half-maximal effect; tags give direction and shape of the fitted curve.

UniProt P25779, sequence (P25779 whole entry, looked up): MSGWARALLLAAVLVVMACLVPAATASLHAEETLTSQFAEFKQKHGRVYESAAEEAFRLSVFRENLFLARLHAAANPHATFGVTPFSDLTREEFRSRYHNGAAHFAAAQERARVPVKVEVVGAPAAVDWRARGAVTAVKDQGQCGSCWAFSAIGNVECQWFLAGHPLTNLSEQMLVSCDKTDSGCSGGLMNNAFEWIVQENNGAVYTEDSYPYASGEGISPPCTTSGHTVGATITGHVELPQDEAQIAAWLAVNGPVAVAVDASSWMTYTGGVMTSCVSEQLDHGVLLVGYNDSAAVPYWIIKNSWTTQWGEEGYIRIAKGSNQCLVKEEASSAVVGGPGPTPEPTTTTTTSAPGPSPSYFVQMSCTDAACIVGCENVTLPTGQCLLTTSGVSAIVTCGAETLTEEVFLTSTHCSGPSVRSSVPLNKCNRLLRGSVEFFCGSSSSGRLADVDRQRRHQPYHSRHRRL

Compound	max response, negative = inhibition	Potency
Cc1cc(C)cc(C(=N)c2ccccc2Cc2cccc3ccccc23)c1	inactive: -9.73%	
N=C1/C(=C\c2ccc(-c3cccc(Cl)c3)o2)C(=O)N=C2SC=C(c3ccccc3)N12		inconclusive: 5.01 µM [inhibitor, partial curve]
COc1ccccc1-c1noc(CCC(=O)Nc2cc(C(F)(F)F)ccc2Cl)n1		inconclusive: 39.8 µM [activator, single point]
COC(=O)[C@@]1(Cc2ccc(F)cc2)[C@H]2c3cc(C(=O)N4CCCC4)n(CCF)c3C[C@H]2CN1C(=O)c1ccccc1		inconclusive: 6.31 µM [activator, single point]
CS(=O)(=O)c1ccc2nc(NC(=O)CCC(=O)c3cccs3)sc2c1		inconclusive: 20 µM [inhibitor, single point]
COc1cccc2c1cc1c(=O)n(CC(=O)NC3CCCCC3)nc(C)n12	inactive: 3.07%	
COc1c(-c2coc3cc4c(cc3c2=O)CC(O)C(C)(C)O4)ccc2c1C=CC(C)(C)O2 (centres undefined)		inconclusive: 10 µM [activator, partial curve]
CCCn1c(-c2ccc(F)cc2)nc2c(NC3CC4CCC(C3)N4C)nc(C)nc21 (centres undefined)	inactive: -1.21%	
CCCN1C(=O)c2[nH]nc(-c3ccccc3O)c2C1c1ccc(OCc2ccccc2)c(OC)c1 (centres undefined)		inconclusive: 31.6 µM [inhibitor, single point]
Cc1nc(-c2cccc(NC(=O)Nc3ccc([N+](=O)[O-])cc3)c2)no1	inactive: -20.7%	
CCc1ccc(C(=O)CSc2nc3ccccc3c(=O)[nH]2)cc1		inconclusive: 39.8 µM [inhibitor, single point]
CCCc1cc(=O)oc2c3c(ccc12)OCN(Cc1ccc(OC)cc1)C3		inconclusive: 39.8 µM [inhibitor, single point]
CCn1c(C(=O)NCc2ccccc2C)cc2oc3ccccc3c21		inconclusive: 39.8 µM [inhibitor, single point]
Cc1ccc2nc(N3CCN(Cc4nnnn4C4CCCC4)CC3)c(C#N)cc2c1		inconclusive: 25.1 µM [activator, single point]
COC(=O)CCN(C1CCCCC1)S(=O)(=O)c1ccc(S(=O)(=O)N2CCCCC2)cc1		inconclusive: 25.1 µM [activator, single point]
CC(Sc1nnc(NC2CCCCC2)s1)C(=O)Nc1ccc2c(c1)C(=O)c1ccccc1C2=O (centres undefined)		active: 15.8 µM
COC(=O)c1ccc2c(=O)n(CCCCCC(=O)N3CCN(c4ccccc4)CC3)c(=O)[nH]c2c1		inconclusive: 39.8 µM [activator, single point]
CC(=O)N1CCCc2cc(S(=O)(=O)N3CCC(C(=O)NC4CCC(C)CC4)CC3)ccc21 (centres undefined)		inconclusive: 39.8 µM [activator, single point]
c1coc(-c2nc3ccccc3nc2-c2ccco2)c1		active: 12.6 µM
CNC(=O)C1CCC(Cn2c(=O)c3sccc3n(Cc3ccc(F)cc3)c2=O)CC1 (centres undefined)	inactive: 15.2%	
O=C(NCCc1ccccc1)c1ccc2c(c1)N(Cc1c(F)cccc1Cl)C(=O)CS2		inconclusive: 39.8 µM [inhibitor, single point]
CCCn1nc(C(=O)Nc2cccc(C(=O)OC)c2)c2ccccc2c1=O		inconclusive: 31.6 µM [activator, single point]

Compound	max response, negative = inhibition	Potency
COc1cc2c(cc1OC)C(COc1ccc3c(C)cc(=O)oc3c1)N(C(=O)c1cccc(C)c1)CC2 (centres undefined)	inactive: -5.34%	
CCOC(=O)c1[nH]c(COC(=O)C2CC(=O)N(Cc3ccccc3)C2)c(C(=O)OCC)c1C (centres undefined)		inconclusive: 39.8 µM [activator, single point]
COc1ccc(-n2c(SCC(=O)Nc3ccc([N+](=O)[O-])cc3OC)nc3ccccc32)cc1		active: 7.94 µM
CN(C(=O)COC(=O)CNC(=O)c1sc2ccccc2c1Cl)c1ccccc1		active: 7.94 µM
COc1cccc(-c2csc(N3CCN(C(=O)Nc4ccccc4OC)CC3)n2)c1		inconclusive: 12.6 µM [inhibitor, partial curve, poor fit]
COc1ccc(S(=O)(=O)NCC2CCC(C(=O)N3CCC4(CC3)OCCO4)CC2)cc1 (centres undefined)		inconclusive: 39.8 µM [activator, single point]
COc1ccc(CCN(Cc2cccs2)S(=O)(=O)c2ccc(-n3cnnn3)c(OC)c2)cc1OC		inconclusive: 39.8 µM [activator, single point]
O=C(/C=C/c1cccc([N+](=O)[O-])c1)Nc1ccc(NC(=O)c2cccs2)cc1		active: 20 µM
COc1ccc(COc2cc(-c3cccc(OC)c3)nc3ccc(NC(=O)c4ccc(Cl)cc4)cc23)cc1		active: 7.94 µM and active: 2.82 µM
O=C(N/N=C/c1ccccc1OC(=O)c1ccc2c(c1)OCO2)c1cccc(F)c1		inconclusive: 31.6 µM [inhibitor, single point]
O=C(C1CCN(S(=O)(=O)c2cccc3nsnc23)CC1)N1CCc2ccccc21		inconclusive: 39.8 µM [inhibitor, single point]
O=C(CCCCn1c(=O)c2ccccc2n(Cc2ccccc2Cl)c1=O)NCCc1ccccc1	inactive: 19.9%	
O=C(OCc1nc2ccccc2s1)c1cccc(S(=O)(=O)N2CCOCC2)c1		inconclusive: 39.8 µM [activator, single point]
CCCN(CCC)C(=O)Cn1c(=O)n(-c2cccc(OC)c2)c(=O)c2c3c(sc21)CCCC3	inactive: -8.86%	
Cc1ccc(NC(=O)C2CCCN(c3nnc(-n4c(C)ccc4C)s3)C2)c(C)c1 (centres undefined)	inactive: 8.77%	
CC1=C(C)CS(=O)N(c2ccc(S(N)(=O)=O)cc2)C1 (centres undefined)		active: 15.8 µM
O=C(O)c1cc2c(ccc3ccccc32)oc1=O		active: 10 µM
Cc1cc(NS(=O)(=O)c2ccc(NC(=O)c3ccccc3C)cc2)nc(C)n1	inactive: 11.3%	
N#C/C(=C\C=C\c1ccccc1)C(=O)Nc1ccccc1		inconclusive: 39.8 µM [inhibitor, single point]
CCc1ccc(NCc2cc3cc4c(cc3n(CC(=O)Nc3cccc(OC)c3)c2=O)OCO4)cc1		active: 25.1 µM
Cc1ccc(/C=C2\Oc3cc(OC(=O)N4CCOCC4)ccc3C2=O)cc1		inconclusive: 39.8 µM [activator, single point]
CCCCC(NC(=O)c1ccccc1)C(=O)OCC(=O)N1c2ccccc2Sc2ccccc21 (centres undefined)		inconclusive: 39.8 µM [inhibitor, single point]

Compound	max response, negative = inhibition	Potency
CCOC(=O)c1cc(-c2ccc(N)cc2)sc1N		active: 31.6 µM
Cc1ccc2nc(N3CCN(c4cccc(C(F)(F)F)c4)CC3)c3nnnn3c2c1	inactive: 10.4%	
Cc1cc(C)c2cc(CN(Cc3cccs3)Cc3nnnn3CC3CCCO3)c(=O)[nH]c2c1 (centres undefined)		inconclusive: 31.6 µM [activator, single point]
O=C(OCc1cc(Cl)ccc1OC(F)F)c1cc(S(=O)(=O)O)ccc1O	inactive: 5.58%	
CCSc1nc2ccccc2n1C(=O)/C=C/c1ccc(OC)c(OC)c1		inconclusive: 39.8 µM [activator, single point]
Oc1ccccc1/C=N/Nc1ccnc(SCc2ccccc2)n1		active: 20 µM
Cc1ccc2nc(-c3ccc(Cl)c(NC(=O)COc4cccc(C)c4C)c3)oc2c1	inactive: 9.43%	
C=CCn1c(SCC(=O)N2CC(=O)Nc3ccccc32)nc2scc(-c3ccccc3)c2c1=O		inconclusive: 31.6 µM [inhibitor, single point]
NC(=O)CSc1nnc(-c2ccc(S(=O)(=O)N3CCOCC3)cc2)n1Cc1ccccc1		inconclusive: 25.1 µM [activator, single point]
COc1cc(C2SCC(=O)Nc3c2c(=O)[nH]n3C2CCCCCC2)cc(OC)c1OC (centres undefined)		inconclusive: 39.8 µM [activator, single point]
CCn1c2ccccc2c2cc(NC(=O)CSc3nnc(-c4cccc(F)c4)o3)ccc21		inconclusive: 31.6 µM [inhibitor, single point]
COC(=O)c1c(NC(=O)CN2CCN(c3ccccc3Cl)CC2)sc(C)c1C		inconclusive: 39.8 µM [inhibitor, single point]
Cc1ccc(NC(=O)CSc2nnc(CNC(=O)C34CC5CC(CC(C5)C3)C4)n2-c2ccc(F)cc2)cc1		inconclusive: 15.8 µM [activator, partial curve]
CCOc1ccccc1N(C)C(=O)C1CCN(S(=O)(=O)c2cccc3nonc23)CC1		inconclusive: 39.8 µM [activator, single point]
C=CCn1c(C)cc(C(=O)COc2ncnc3sccc23)c1C	inactive: -23%	
CSc1ccc(CCNC(=O)c2ccc(-c3nc(COc4ccccc4)c(C)o3)cc2)cc1	inactive: 3.11%	
Cc1nc2c(-c3ccccc3)c(C)nn2c(C)c1CCC(=O)N1CCN(c2ccc(F)cc2)CC1		inconclusive: 6.31 µM [activator, single point]
C/C(=N\Nc1cc(-c2ccccc2)nc(-c2ccccc2)n1)c1ccc(O)c(C)c1		inconclusive: 39.8 µM [inhibitor, single point]
Cc1ccc(Cn2ccn(Cc3ccccc3F)c(=O)c2=O)cc1		inconclusive: 31.6 µM [activator, single point]
O=C(NCc1ccco1)c1ccc(Cn2c(=O)c3ccccc3n(Cc3cccc(Cl)c3)c2=O)cc1		inconclusive: 39.8 µM [inhibitor, single point]
